Drawing on the antibiotic and cytotoxicity screens of Wong et al. (2023), this text covers cytotoxicity call for 29 compounds.

Structures are written as SMILES. This is one part of the list.

In this test the test system is HSkMC (human skeletal muscle cells). The test is described as follows: cytotoxicity call (relative viability < 0.9). Particulars: 10 µM.
For the compound `C[C@@H]1CN([C@@H](C)CO)C(=O)Cc2cc(NC(=O)CCN3CCOCC3)ccc2O[C@@H]1CN(C)Cc1ccc(C(=O)Nc2ccccc2N)cc1`, the cytotoxicity call was “inactive”. As for `C[C@@H]1CN([C@H](C)CO)S(=O)(=O)c2ccc(C#Cc3ccccc3F)cc2O[C@H]1CN(C)C(=O)Cc1cccnc1`, the cytotoxicity call is “inactive”.

As for `COCC#Cc1cnc2c(c1)C(=O)N([C@@H](C)CO)C[C@H](C)[C@@H](CN(C)C(=O)Nc1ccccc1OC)O2`, the cytotoxicity call was “inactive”.

Take `C[C@@H]1CN([C@@H](C)CO)C(=O)c2cc(NC(=O)NC3CCCCC3)ccc2O[C@@H]1CN(C)Cc1ccc(C(=O)Nc2ccccc2N)cc1`: the cytotoxicity call is “inactive”. Next, `COc1ccc(S(=O)(=O)Nc2cccc3c2O[C@H](CN(C)S(=O)(=O)c2cccs2)[C@H](C)CN([C@H](C)CO)C3=O)cc1`: “inactive”. Consider `Cc1noc(C)c1NC(=O)Nc1ccc2c(c1)C(=O)N([C@@H](C)CO)C[C@H](C)[C@@H](CN(C)C(=O)C1CCCCC1)OCCCC[C@H](C)O2`, for which the cytotoxicity call was “inactive”. Consider `Cc1ccc(S(=O)(=O)N(C)C[C@H]2OCCCC[C@@H](C)Oc3ccc(NC(=O)Nc4ccc5c(c4)OCO5)cc3C(=O)N([C@H](C)CO)C[C@@H]2C)cc1`, for which the cytotoxicity call is “inactive”. For `Cc1ccc(S(=O)(=O)N[C@@H]2C=C[C@H](CC(=O)NCCN3CCCCC3)O[C@H]2CO)cc1`, the cytotoxicity call is “inactive”. As for `C[C@@H](O)Cn1cnc2c1c(=O)n(C)c(=O)n2C`, the cytotoxicity call is “inactive”. `Cc1nn(C)cc1NC(=O)C[C@@H]1CC[C@@H]2[C@@H](COc3ccc(NC(=O)C4CCOCC4)cc3C(=O)N2C)O1`: the cytotoxicity call was “inactive”.

As to `C[C@H](CO)N1C[C@H](C)[C@H](CN(C)S(=O)(=O)c2cn(C)cn2)Oc2ccc(NC(=O)CCN3CCOCC3)cc2C1=O`, the cytotoxicity call is “inactive”. With `O=C1C[C@@H]2C(=O)NCCN2C(NC(=O)c2ccccc2)=N1`, the cytotoxicity call was “inactive”. Take `C[C@H](CO)N1C[C@H](C)[C@H](CN(C)C(=O)Cc2ccncc2)Oc2ncc(C#Cc3ccccc3F)cc2C1=O`: the cytotoxicity call is “inactive”.

For the compound `C[C@H](CO)N1C[C@H](C)[C@H](CN(C)C(=O)Cc2ccccn2)Oc2ncc(-c3cccc(C(=O)N(C)C)c3)cc2C1=O`, the cytotoxicity call was “inactive”. With `O=C(CCCCCCC(=O)N/N=C/c1cc(I)cc(I)c1O)NO`, the cytotoxicity call is “active”. As to `COc1cc(/C=C/C(=O)O[C@H]2CC[C@]34C[C@]35CC[C@]3(C)[C@@H]([C@@H](C)CCC=C(C)C)CC[C@@]3(C)[C@@H]5CC[C@@H]4C2(C)C)ccc1O`, the cytotoxicity call is “inactive”. Consider `C[C@@H]1CN([C@H](C)CO)C(=O)c2cc(NC(=O)C3CCCCC3)ccc2O[C@@H](C)CCCCO[C@@H]1CN(C)Cc1ccc(Cl)c(Cl)c1`, for which the cytotoxicity call was “inactive”. Regarding `CNC(=O)Cc1cnc(N)s1`, the cytotoxicity call is “inactive”. In the case of `C[C@@H]1CCCCO[C@H](CN(C)C(=O)Cc2ccccc2)[C@H](C)CN([C@H](C)CO)C(=O)c2cc(NC(=O)Nc3ccccc3)ccc2O1`, the cytotoxicity call was “inactive”. Take `C[C@@H]1CN([C@H](C)CO)C(=O)c2cc(NS(=O)(=O)c3ccc(Cl)cc3)ccc2O[C@@H](C)CCCCO[C@@H]1CN(C)S(=O)(=O)c1ccc(Cl)cc1`: the cytotoxicity call is “inactive”. Take `C[C@H](CO)N1C[C@H](C)[C@@H](CN(C)C(=O)c2cc(Cl)cc(Cl)c2)OCc2ccccc2-c2ccccc2C1=O`: the cytotoxicity call is “inactive”.

In the case of `C[C@H]1CN([C@@H](C)CO)C(=O)c2cc(NC(=O)Nc3cccc4ccccc34)ccc2O[C@@H]1CN(C)Cc1ccccc1`, the cytotoxicity call was “inactive”. For `COc1ccc2c3c(n(c2c1)C)[C@H](CO)N(C[C@]13CCN(CC1)S(=O)(=O)C)C(=O)CN(C)C`, the cytotoxicity call is “inactive”.

For `CO[C@H](CN(C)C(=O)C1CCOCC1)[C@@H](C)CN(C(=O)Nc1ccc(C(F)(F)F)cc1)[C@@H](C)CO`, the cytotoxicity call is “inactive”.

With `CN1CCN(C(=O)[C@H]2[C@H](CO)[C@H]3Cn4c(ccc(C5=CCCC5)c4=O)[C@@H]2N3S(C)(=O)=O)CC1`, the cytotoxicity call was “inactive”. Regarding `COc1ccc(NC(=O)Nc2ccc3c(c2)[C@@H]2C[C@H](CC(=O)N4CCN(C)CC4)O[C@H](CO)[C@@H]2O3)cc1`, the cytotoxicity call was “inactive”.

For the compound `C[C@H]1CN([C@@H](C)CO)C(=O)CCCn2nncc2CO[C@@H]1CN(C)S(=O)(=O)c1ccc2ccccc2c1`, the cytotoxicity call is “inactive”. `O=C(/C=C/c1ccc(O)cc1)[C@H]1C(=O)[C@H]([C@@H]2O[C@H](CO)[C@@H](O)[C@H](O)[C@H]2O)C(=O)[C@@](O)([C@@H]2O[C@H](CO)[C@@H](O)[C@H](O)[C@H]2O)C1=O`: the cytotoxicity call was “inactive”. Turning to `C[C@@H]1CN([C@H](C)CO)C(=O)c2cccc(NC(=O)Nc3ccc(F)cc3)c2O[C@H]1CN(C)Cc1ccc(Oc2ccccc2)cc1`, the cytotoxicity call was “inactive”.
